Measured values taken from PMC3907550.
These are yes or no findings as the source states them, for the method shown. For some of these results: In cells and extracts the contact can be indirect. Some binding calls cover weakened binding; strength is not graded here. For some of these results: Sequences can lack the tags named with a protein. Blank lines part the entries; values can stand above or below the substance they belong to.

Protein sequences, listed by entry. Tags and fused reporters are not part of them.
UniProt P84634: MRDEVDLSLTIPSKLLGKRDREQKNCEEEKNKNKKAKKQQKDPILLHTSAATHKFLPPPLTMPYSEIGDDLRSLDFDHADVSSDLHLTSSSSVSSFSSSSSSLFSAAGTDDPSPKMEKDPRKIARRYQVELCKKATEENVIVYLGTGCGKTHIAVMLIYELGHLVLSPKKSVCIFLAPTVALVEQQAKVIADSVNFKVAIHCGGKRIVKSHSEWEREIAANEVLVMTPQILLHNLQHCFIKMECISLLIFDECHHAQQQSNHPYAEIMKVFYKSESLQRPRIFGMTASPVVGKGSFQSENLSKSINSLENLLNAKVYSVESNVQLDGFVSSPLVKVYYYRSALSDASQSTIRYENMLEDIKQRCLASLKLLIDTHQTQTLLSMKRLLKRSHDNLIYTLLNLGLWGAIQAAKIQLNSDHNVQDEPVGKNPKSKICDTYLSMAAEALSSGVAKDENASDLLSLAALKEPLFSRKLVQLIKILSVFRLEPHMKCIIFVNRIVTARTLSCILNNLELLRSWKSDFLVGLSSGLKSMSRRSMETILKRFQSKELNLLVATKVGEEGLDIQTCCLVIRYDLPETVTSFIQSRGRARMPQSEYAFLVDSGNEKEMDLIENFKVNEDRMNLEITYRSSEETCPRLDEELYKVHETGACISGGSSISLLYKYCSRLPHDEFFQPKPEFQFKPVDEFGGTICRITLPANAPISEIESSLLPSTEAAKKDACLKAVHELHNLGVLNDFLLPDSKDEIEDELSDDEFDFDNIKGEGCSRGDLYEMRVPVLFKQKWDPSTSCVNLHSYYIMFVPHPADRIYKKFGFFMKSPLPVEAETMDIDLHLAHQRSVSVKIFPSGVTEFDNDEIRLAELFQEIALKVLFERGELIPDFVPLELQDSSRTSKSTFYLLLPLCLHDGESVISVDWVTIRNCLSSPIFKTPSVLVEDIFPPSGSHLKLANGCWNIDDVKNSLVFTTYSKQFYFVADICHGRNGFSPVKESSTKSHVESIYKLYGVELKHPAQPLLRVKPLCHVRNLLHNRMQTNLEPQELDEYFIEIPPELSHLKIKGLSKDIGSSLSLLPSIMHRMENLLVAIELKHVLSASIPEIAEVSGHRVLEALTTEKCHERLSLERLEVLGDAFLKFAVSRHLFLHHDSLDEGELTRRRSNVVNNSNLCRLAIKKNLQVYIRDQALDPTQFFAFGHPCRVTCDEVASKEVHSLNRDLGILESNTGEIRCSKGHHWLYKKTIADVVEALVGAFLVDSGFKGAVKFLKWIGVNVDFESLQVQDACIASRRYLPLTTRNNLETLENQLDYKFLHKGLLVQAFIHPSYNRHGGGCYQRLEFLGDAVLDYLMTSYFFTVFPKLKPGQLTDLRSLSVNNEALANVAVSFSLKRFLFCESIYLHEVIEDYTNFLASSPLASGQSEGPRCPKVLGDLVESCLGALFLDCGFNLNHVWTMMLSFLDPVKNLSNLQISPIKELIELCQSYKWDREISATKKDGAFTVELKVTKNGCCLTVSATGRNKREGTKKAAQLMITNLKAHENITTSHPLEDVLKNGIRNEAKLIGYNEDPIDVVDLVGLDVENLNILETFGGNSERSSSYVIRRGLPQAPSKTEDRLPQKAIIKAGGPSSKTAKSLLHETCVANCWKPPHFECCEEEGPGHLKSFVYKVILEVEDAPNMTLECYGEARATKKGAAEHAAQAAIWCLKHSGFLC
UniProt Q9LZG0: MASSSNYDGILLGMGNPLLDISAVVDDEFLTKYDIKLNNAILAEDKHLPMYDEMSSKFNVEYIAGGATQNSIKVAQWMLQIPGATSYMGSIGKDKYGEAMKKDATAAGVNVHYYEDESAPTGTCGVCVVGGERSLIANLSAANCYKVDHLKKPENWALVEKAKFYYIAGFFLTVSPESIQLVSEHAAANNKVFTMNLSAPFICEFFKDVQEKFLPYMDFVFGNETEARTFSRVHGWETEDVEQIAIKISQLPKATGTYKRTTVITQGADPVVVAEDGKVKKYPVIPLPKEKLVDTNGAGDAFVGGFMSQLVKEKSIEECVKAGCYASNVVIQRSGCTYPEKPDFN

What was measured:
[1] = molecular target: T1, dsRNA binding protein 4 (DRB4), full-length, fused to the N- or C-terminal portion of YFP (BiFC) (UniProt Q8H1D4); experiment: split reporter; BiFC of YFP (YN + YC fusions) in N. benthamiana leaf epidermal cells, agroinfiltration, confocal microscopy 48 h post-infiltration
T1 sequence: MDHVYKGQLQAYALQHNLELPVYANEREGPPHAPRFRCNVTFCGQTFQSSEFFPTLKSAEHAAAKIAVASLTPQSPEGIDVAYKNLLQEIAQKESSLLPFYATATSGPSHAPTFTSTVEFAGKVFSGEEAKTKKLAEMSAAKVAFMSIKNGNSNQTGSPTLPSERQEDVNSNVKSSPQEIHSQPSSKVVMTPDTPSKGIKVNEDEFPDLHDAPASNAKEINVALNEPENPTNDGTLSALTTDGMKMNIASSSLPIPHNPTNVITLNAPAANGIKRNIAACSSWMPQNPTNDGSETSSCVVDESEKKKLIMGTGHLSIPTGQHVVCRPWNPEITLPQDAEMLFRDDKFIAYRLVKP

[2] = molecular target: Dicer-like 4 (DCL4), full-length, fused to the N- or C-terminal portion of YFP (BiFC) (UniProt P84634); experiment: as above
[3] = molecular target: T2, SnRK1.2 kinase domain (SnRK1-KD; amino acids 1-343), yeast two-hybrid fusion (Arabidopsis) (UniProt P92958); experiment: two-hybrid; baits as GAL4 DNA binding domain fusions, preys as GAL4 activation domain fusions, yeast Y190; growth on medium lacking histidine with 50 mM aminotriazole; LacZ filter-lift assay
T2 sequence: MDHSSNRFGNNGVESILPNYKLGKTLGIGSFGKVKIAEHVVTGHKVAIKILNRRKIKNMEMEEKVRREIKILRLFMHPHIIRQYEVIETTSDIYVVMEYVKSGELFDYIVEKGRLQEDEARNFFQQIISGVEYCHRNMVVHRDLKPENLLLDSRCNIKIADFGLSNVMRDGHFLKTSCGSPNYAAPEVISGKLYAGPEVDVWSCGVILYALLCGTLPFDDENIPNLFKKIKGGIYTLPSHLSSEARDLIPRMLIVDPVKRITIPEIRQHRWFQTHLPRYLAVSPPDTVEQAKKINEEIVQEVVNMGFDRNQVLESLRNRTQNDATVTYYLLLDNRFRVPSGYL

[4] = molecular target: T3, SnRK1.2 (SNF1-related kinase 1), full-length, yeast two-hybrid fusion (Arabidopsis) (UniProt P92958); experiment: as above
T3 sequence: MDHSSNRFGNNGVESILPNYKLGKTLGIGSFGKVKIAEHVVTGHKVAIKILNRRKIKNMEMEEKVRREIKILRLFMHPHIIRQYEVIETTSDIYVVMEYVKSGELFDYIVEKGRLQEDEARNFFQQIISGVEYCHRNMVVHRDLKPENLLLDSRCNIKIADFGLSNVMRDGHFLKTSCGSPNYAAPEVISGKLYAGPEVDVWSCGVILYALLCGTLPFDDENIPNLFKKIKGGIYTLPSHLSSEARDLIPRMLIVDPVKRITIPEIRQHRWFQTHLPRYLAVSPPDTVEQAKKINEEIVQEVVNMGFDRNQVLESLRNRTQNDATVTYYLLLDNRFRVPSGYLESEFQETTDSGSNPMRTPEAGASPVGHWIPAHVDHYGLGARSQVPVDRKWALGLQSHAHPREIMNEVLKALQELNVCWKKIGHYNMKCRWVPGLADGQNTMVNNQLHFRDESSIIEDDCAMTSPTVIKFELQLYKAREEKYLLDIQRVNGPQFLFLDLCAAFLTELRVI

binding [1]: binds
Substance: Dicer-like 4 (DCL4), full-length, fused to the N- or C-terminal portion of YFP (BiFC) (from UniProt P84634 1-1702) (enzyme)

binding [2]: no binding
Substance: Adenosine kinase 2 (ADK2), full-length, fused to the N- or C-terminal portion of YFP (BiFC) (from UniProt Q9LZG0 1-345) (enzyme)

binding [3]: binds
binding [4]: binds
Substance: Adenosine kinase 2 (ADK2), yeast two-hybrid fusion (from UniProt Q9LZG0 1-345) (enzyme)
